Measurements published in US20050130892A1 (Xencor, published 2005).

Biological target: T1, untagged BAFF(wt), soluble TNF homology domain of BAFF (THD, residues 134-285) (human, UniProt Q9Y275 part only)
T1 construct: range 134-285
Experiment: monomer exchange reaction, native gels and Western blot, 24, 72 and 168 hrs

- binding result: binds
B1: FlagBAFF(F220S) (ligand)
chain: not shown
notes: range […]; Numbering on the full-length precursor; also called Flag(F220S); Flag-F220S-BAFF; not shown: N-terminal Flag-tag followed by a Factor Xa protease site
